Data reported in the supplement of paper PMC4166925.
± gives the standard deviation of the averaged measurements. In all, about 33,000 sequences were measured (“E-score (dimensionless, -0.5 to 0.5)”: median about -0.046, highest 2% from about 0.36 on). The list shows a part of the results.

System: T1, SpTbr T-box DNA-binding domain (GST fusion)
T1 sequence: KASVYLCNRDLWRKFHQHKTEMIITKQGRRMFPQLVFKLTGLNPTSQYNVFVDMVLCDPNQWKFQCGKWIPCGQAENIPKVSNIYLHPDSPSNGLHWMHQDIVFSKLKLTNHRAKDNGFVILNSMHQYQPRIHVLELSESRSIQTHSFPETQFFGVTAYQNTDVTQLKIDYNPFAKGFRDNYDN
Test: PBM E-score of 8-mer (E-score (dimensionless, -0.5 to 0.5)); Tbr is Tbrain of the sea star Patiria miniata (Pm) or the sea urchin Strongylocentrotus purpuratus (Sp); higher = stronger binding preference; most listed sequences are background and not binding sites
Details: the construct has about 5 more residues each side
Summary of the method: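 Expression of GST-fused Tbr T-box DNA-binding domains, each holding the full T-box plus roughly five flanking residues, was carried out in BL21 E. coli at 20 °C, with purification by glutathione affinity chromatography. Universal Agilent arrays made double-stranded by primer extension were incubated with the protein at 200 nM in PBS (pH 7.5), then scanned and quantified. All ungapped 8-mers were scored from probe intensities, and each received an enrichment E-score from the Universal PBM Analysis Suite, averaged over duplicate arrays.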

Sequence	PBM E-score of 8-mer
AATAGGAT	-0.223 ± 0.01
TACGTTGA	-0.0845 ± 0.015
AATGTGGA	-0.0688 ± 0.0046
CATTCAGG	0.0471 ± 0.042
ACAGGCAA	-0.22 ± 0.02
CATAGGGC	-0.147 ± 0.017
GACGGGTA	-0.0387 ± 0.015
AGAGCGGC	-0.0073 ± 0.081
ATATGATC	-0.293 ± 0.016
ATTGCCAA	0.102 ± 0.047
GTGAAGCA	0.141 ± 0.0029
GCCAAAGA	-0.00282 ± 0.078
CGGTGTGA	0.456 ± 0.0098
GAATGCGC	-0.136 ± 0.13
ATGACTAA	-0.237 ± 0.011
CCTGGGGA	0.0714 ± 0.018
ACCGATGC	-0.0885 ± 0.078
CAAGAGCG	0.0244 ± 0.094
GTAGACAC	0.255 ± 0.016
CAGGTAAA	-0.0495 ± 0.055
CACACCGA	0.291 ± 0.036
GGTTGACA	0.382 ± 0.017
ACATAACT	-0.0591 ± 0.004
CATGCGAG	0.106 ± 0.012

Sequence	PBM E-score of 8-mer
GCTGAGCC	-0.168 ± 0.088
AAGAAAGG	-0.215 ± 0.021
AGCTTCAG	-0.0258 ± 0.022
AGAAAATG	-0.151 ± 0.052
ACAGGGAT	-0.165 ± 0.057
ATCGAAGC	-0.147 ± 0.031
ACCAACCA	0.0847 ± 0.0076
CAGGGACC	-0.289 ± 0.052
CGTCGTTC	0.134 ± 0.022
AGCCCCAT	-0.258 ± 0.046
CCATGGGA	-0.117 ± 0.07
CATGAGAA	-0.122 ± 0.04
CCTGGGTA	-0.162 ± 0.032
CTTCCGTC	0.0392 ± 0.058
CCGGGGCA	-0.152 ± 0.019
CCATTCAC	0.24 ± 0.027
AAAACCCT	-0.29 ± 0.022
CGTTTACA	0.235 ± 0.029
CCATCTAG	-0.0568 ± 0.011
GCTGCTAC	-0.0699 ± 0.14
GATACTGA	-0.116 ± 0.036
CCCATTAC	-0.0958 ± 0.0029
GGGCCGAC	-0.138 ± 0.094
ACTCGGCG	-0.00275 ± 0.1

Sequence	PBM E-score of 8-mer
CTTGCTAA	0.0253 ± 0.12
ACCGTATG	-0.112 ± 0.066
ACCAAGAT	-0.115 ± 0.0078
AGTGAAGG	0.119 ± 0.032
CCACCAAA	0.0467 ± 0.057
GATGGGCA	-0.147 ± 0.056
CAAGTCAA	0.0648 ± 0.039
ACAGTCCA	-0.123 ± 0.0018
TAATGCTA	-0.25 ± 0.0095
GGTTCCTA	-0.228 ± 0.018
ACAAGAGG	-0.0502 ± 0.064
CAACCATG	0.134 ± 0.032
AGCTTGAG	-0.264 ± 0.045
CCGCGGCA	0.1 ± 0.067
GTGGCTCA	0.0493 ± 0.011
ATCTCCAG	-0.125 ± 0.028
CGCTTCCC	0.0609 ± 0.082
AAAATCTG	-0.015 ± 0.025
TAGTAGCA	-0.149 ± 0.078
AAAGCACC	-0.146 ± 0.12
ATCTGTGA	0.31 ± 0.0036
CGTATGAG	0.035 ± 0.042
AGAGTTCG	-0.121 ± 0.068
GTGACGTA	0.123 ± 0.029

Sequence	PBM E-score of 8-mer
AGTTCCAG	-0.201 ± 0.0053
CGTAAGGA	0.132 ± 0.043
ATCGATGA	-0.0913 ± 0.098
CCTCTCCC	0.0362 ± 0.0014
ACCTACGA	-0.0518 ± 0.035
CCAGTCGC	0.0261 ± 0.0086
AGTGCCGC	0.104 ± 0.016
CAGGCCTA	-0.166 ± 0.014
CCTCAGAA	-0.076 ± 0.04
CACTGATA	0.0724 ± 0.051
GATGGGAA	-0.0808 ± 0.012
CGCCCCGA	0.0439 ± 0.0082
AGGTTAAG	-0.139 ± 0.054
CCCCAACA	0.232 ± 0.047
CCTGAAGG	-0.195 ± 0.053
GCACAAAC	-0.0808 ± 0.0095
CGGTAACG	0.19 ± 0.045
GGCGAGCC	-0.0845 ± 0.068
CGGCCTAA	-0.0637 ± 0.029
CTAGCGAA	0.115 ± 0.023
AGATGAAA	-0.212 ± 0.0059
CATCGATC	-0.152 ± 0.13
